Of roughly 21,000 targets only a part is listed; those with the largest changes were picked by preference.
Compound: CC1Cc2ccccc2N1C(=O)C1CCCN(C1)C(=O)CCl (mixture of isomers) [TRIM25 ligand 11 (diastereomer mixture)]
Test: probe-labelled cysteine peptide fold change vs DMSO (competition) (log2 fold change); higher = less target engagement (more negative = stronger competition)
Details: 10 µM; THP-1; incubation time: 4 h
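Note: competitive chemoproteomic profiling in live THP-1 cells with an iodoacetamide desthiobiotin (IA-DTB) probe, comparing probe-labelled peptide intensities in compound-treated cells against DMSO-treated controls.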

Sequence of UniProt Q3L8U1 (Q3L8U1 whole entry, looked up): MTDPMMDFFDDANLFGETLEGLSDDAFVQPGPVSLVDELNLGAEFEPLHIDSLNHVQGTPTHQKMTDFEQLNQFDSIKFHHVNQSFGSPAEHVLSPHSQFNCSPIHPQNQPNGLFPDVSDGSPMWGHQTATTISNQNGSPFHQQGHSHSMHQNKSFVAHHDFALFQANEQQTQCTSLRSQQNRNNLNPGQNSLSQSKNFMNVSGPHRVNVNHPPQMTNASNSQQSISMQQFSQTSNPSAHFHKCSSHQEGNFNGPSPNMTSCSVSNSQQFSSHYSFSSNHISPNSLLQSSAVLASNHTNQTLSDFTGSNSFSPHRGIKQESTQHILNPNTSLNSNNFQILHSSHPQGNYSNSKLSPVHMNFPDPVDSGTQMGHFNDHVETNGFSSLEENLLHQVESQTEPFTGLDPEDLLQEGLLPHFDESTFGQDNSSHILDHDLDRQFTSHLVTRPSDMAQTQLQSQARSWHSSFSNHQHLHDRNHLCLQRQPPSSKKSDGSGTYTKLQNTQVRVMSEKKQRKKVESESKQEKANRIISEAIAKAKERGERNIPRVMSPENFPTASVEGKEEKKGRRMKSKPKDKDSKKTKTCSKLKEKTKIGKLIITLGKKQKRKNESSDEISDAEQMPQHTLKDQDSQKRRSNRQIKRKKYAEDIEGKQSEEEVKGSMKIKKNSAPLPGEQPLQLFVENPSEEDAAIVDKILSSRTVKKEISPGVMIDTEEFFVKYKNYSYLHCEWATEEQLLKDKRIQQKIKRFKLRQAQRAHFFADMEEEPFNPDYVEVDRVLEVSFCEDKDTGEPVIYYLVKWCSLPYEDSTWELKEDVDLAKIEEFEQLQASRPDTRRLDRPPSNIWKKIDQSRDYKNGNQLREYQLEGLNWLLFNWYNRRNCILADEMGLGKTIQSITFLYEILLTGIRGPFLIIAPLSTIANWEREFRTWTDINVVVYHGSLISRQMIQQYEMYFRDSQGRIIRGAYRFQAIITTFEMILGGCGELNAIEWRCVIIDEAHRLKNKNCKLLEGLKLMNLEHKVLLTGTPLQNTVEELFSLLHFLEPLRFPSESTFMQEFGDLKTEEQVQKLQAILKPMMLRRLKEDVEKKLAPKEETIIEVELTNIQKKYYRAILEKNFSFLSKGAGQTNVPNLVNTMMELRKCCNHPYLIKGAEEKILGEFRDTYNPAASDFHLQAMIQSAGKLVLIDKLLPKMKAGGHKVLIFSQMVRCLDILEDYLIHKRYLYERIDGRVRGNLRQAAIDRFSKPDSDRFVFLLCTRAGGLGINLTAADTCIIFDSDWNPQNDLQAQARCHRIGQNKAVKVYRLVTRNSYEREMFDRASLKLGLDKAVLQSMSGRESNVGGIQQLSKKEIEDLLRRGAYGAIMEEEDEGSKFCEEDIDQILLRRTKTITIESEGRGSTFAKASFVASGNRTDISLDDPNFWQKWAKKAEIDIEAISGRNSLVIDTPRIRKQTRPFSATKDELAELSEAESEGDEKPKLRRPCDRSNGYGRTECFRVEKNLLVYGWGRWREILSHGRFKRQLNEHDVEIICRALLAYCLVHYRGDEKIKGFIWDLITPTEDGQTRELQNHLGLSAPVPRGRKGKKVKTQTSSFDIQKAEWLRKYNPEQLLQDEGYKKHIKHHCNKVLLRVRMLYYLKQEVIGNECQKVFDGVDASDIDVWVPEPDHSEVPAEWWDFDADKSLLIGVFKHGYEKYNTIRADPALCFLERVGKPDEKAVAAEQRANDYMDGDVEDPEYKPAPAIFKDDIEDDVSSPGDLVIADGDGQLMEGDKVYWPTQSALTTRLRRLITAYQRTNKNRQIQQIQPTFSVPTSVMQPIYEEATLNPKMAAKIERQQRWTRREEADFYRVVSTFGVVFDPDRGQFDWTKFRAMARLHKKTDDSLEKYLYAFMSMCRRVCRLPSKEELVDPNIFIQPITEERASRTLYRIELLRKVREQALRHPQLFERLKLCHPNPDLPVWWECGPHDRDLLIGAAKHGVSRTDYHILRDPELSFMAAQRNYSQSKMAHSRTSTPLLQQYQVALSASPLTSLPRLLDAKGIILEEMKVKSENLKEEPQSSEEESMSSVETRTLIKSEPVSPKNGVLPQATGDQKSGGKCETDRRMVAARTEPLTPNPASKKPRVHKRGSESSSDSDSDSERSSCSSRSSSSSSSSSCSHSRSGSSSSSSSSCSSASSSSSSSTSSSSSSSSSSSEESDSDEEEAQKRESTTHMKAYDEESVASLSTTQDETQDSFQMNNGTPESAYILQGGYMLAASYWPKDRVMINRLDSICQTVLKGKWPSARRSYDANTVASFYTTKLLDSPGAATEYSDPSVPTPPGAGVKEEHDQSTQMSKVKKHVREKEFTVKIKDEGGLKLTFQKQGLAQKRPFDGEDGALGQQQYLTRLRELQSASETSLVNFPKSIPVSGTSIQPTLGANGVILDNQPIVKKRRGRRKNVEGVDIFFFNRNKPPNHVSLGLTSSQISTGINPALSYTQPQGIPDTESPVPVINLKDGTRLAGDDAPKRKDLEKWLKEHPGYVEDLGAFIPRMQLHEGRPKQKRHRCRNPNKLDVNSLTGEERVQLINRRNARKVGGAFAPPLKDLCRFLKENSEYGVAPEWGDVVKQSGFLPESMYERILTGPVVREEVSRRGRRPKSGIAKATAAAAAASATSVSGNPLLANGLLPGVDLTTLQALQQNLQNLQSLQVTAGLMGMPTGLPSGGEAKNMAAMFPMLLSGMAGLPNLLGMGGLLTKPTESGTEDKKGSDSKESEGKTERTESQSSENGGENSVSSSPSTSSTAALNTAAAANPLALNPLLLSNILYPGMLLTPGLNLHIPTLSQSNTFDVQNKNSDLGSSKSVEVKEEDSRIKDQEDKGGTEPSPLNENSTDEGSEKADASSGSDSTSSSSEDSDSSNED
Sequence of UniProt Q13557 (Q13557 whole entry, looked up): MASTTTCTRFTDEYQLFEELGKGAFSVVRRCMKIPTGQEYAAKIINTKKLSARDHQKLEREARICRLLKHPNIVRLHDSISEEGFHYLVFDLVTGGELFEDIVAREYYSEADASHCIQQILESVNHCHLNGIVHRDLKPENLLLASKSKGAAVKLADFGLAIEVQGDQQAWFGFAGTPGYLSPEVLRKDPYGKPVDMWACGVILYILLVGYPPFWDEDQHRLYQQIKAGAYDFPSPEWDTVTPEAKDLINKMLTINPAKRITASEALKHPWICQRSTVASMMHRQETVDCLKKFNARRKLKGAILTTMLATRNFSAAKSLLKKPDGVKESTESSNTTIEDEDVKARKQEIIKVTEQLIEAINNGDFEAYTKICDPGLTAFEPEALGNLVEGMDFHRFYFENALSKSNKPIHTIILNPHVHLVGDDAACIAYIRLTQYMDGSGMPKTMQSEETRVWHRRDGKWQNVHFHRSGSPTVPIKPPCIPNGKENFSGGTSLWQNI
Sequence of UniProt P45973 (P45973 whole entry, looked up): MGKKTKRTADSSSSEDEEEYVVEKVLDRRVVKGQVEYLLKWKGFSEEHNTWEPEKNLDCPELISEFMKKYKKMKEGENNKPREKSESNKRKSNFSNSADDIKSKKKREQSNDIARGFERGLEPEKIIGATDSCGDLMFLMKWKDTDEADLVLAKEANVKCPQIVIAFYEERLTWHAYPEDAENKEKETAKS
Sequence of UniProt P25942 (P25942 whole entry, looked up): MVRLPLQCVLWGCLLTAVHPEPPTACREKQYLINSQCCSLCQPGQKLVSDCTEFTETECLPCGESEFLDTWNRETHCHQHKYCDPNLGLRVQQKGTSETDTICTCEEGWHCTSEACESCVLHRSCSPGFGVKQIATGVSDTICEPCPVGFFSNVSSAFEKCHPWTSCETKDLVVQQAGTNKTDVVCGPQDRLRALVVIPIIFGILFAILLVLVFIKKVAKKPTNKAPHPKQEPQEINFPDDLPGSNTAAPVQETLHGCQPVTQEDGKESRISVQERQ
Sequence of UniProt P48643 (P48643 whole entry, looked up): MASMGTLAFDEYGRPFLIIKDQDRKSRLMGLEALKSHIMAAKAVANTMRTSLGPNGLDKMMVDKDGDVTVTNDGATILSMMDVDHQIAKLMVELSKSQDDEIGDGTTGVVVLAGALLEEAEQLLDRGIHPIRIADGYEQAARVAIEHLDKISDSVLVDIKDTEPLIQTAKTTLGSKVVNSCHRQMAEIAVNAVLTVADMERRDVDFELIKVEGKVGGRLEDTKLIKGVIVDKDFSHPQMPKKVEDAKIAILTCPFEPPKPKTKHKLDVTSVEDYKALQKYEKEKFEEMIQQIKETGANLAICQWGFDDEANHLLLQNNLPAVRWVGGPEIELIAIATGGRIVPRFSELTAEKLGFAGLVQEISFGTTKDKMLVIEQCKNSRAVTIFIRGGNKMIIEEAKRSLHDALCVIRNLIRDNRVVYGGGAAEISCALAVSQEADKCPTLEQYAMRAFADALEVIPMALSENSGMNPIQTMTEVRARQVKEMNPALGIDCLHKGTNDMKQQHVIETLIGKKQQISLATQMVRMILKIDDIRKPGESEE
Sequence of UniProt Q14012 (Q14012 whole entry, looked up): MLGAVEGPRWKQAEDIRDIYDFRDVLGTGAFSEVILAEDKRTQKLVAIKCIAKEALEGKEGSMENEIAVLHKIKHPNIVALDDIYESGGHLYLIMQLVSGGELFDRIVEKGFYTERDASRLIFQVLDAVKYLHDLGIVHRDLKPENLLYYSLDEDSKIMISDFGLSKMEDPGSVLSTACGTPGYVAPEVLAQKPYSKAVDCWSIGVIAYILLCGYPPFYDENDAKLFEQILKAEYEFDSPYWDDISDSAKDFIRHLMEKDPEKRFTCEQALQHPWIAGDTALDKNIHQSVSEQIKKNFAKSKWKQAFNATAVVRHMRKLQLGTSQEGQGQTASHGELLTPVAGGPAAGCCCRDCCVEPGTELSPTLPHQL
Sequence of UniProt P62633 (P62633 whole entry, looked up): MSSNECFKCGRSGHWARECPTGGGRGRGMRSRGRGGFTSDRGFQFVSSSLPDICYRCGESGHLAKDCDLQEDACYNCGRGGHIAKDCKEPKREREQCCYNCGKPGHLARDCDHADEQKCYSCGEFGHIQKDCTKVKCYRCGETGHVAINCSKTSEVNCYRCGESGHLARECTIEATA

Row | Target | probe-labelled cysteine peptide fold change
1 | COMP_P49747_520_VVDKIDVCPENAEVTLTDFR (UniProt P49747) | 0.221
2 | CNST_Q6PJW8_439_SKTEPLISPGCDR (UniProt Q6PJW8) | 0.0228
3 | CENPN_Q96H22_325_SLAPAGIADAPLSPLLTCIPNKR (UniProt Q96H22) | -0.357
4 | CBX5_P45973_133_IIGATDSCGDLMFLMK (UniProt P45973) | -0.0556

Same assay, conditions: 50 µM; THP-1; incubation time: 4 h

Row | Target | probe-labelled cysteine peptide fold change
5 | CAMK2D_Q13557_7_ASTTTCTR (UniProt Q13557) | 0.645
6 | BRAP_Q7Z569_221_AQADADSFYMTCNGR (UniProt Q7Z569) | 0.121
7 | BTF3_P20290_22_GGCPGGEATLSQPPPR (UniProt P20290) | -0.294
8 | BPTF_Q12830_940_AVQMCSKPR (UniProt Q12830) | -0.0271
9 | BPNT1_O95861_249_WDTCAPEVILHAVGGK (UniProt O95861) | 0.0565
10 | CAP1_Q01518_93_LERALLVTASQCQQPAENK (UniProt Q01518) | 0.0735
11 | CAMK1_Q14012_267_RFTCEQALQHPWIAGDTALDK (UniProt Q14012) | -0.103
12 | CD40_P25942_119_GTSETDTICTCEEGWHCTSEACESCVLHR (UniProt P25942) | -0.592
13 | CHD9_Q3L8U1_1375_FCEEDIDQILLR (UniProt Q3L8U1) | 0.0618
14 | CANX_P27824_194_TPYTIMFGPDKCGEDYK (UniProt P27824) | -0.569
15 | CCT5_P48643_302_ETGANLAICQWGFDDEANHLLLQNNLPAVR (UniProt P48643) | 0.00759
16 | CNBP_P62633_158_TSEVNCYR (UniProt P62633) | -0.0473
